In all, about 33,000 sequences were measured (“E-score (-0.5 to 0.5)”: median about -0.036, highest 2% from about 0.37 on). Some of the results follow.
target: T1, Yer064c (UniProt P40041); assay: PBM E-score (8-mer binding enrichment) (E-score (-0.5 to 0.5)); higher = stronger / more preferred TF binding; most listed sequences are background and not binding sites; details: protein concentration: 200 nM; construct: GST-full length
T1 sequence: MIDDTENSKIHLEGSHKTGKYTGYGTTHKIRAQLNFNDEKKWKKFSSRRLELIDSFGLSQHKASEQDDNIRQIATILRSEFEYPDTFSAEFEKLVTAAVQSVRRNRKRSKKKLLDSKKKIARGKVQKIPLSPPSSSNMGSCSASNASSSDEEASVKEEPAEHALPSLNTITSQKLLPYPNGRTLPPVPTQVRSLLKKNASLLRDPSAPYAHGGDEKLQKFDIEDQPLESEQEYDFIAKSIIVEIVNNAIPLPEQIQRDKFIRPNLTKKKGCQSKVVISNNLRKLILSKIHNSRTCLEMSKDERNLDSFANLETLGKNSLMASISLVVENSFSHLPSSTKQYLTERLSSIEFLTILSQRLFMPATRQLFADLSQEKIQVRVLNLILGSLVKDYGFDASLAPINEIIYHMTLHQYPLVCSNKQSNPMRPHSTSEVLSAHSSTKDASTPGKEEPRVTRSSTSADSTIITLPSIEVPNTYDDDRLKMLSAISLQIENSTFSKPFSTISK
Outline: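 Universal all-10-mer Agilent arrays, double-stranded by primer extension on fresh or once-stripped slides, were probed with about 100-200 nM GST-tagged yeast transcription factors made by PURExpress. Fluorescent anti-GST detected bound protein, and masliner normalised the scans. E-scores from the Universal PBM Analysis Suite were given to each ungapped eight-base word pooled with its reverse complement.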

With ACTGCAGC as the sequence, how does the “PBM E-score” value read?
Its value is -0.0578.

For ATCGGCAA, which “PBM E-score” value is on record?
Its value is -0.127.

How did the “PBM E-score” value turn out when ACCGCCAC was run?
The value was -0.124.

Which “PBM E-score” value does the source give for GCCGCCCC here?
The value was -0.232.

CTGCTGCC was tested. Which “PBM E-score” value did it give?
The value was -0.207.

How did the “PBM E-score” value turn out when ATCTCTTA was run?
Its value is 0.0455.

How did the “PBM E-score” value turn out when GGTAGACA was run?
The value was 0.0968.

ATGTGCAC was tested. Which “PBM E-score” value did it give?
The value was 0.0933.

Which “PBM E-score” value does the source give for AGAGTCCC here?
The value was 0.0408.

How did the “PBM E-score” value turn out when AAGCAGCT was run?
The value was -0.178.

Which “PBM E-score” value does the source give for ACGAACGG here?
Its value is -0.127.

How did the “PBM E-score” value turn out when GCATAGAA was run?
Its value is -0.207.

CAAGCGAG was tested. Which “PBM E-score” value did it give?
The value was 0.105.

With CATCCCCA as the sequence, how does the “PBM E-score” value read?
The value was -0.105.

With AATAGAGA as the sequence, how does the “PBM E-score” value read?
Its value is -0.161.

With CATTAATA as the sequence, how does the “PBM E-score” value read?
The value was -0.0259.

With GTGGAGTA as the sequence, how does the “PBM E-score” value read?
Its value is 0.0154.

How did the “PBM E-score” value turn out when ACGTCTCG was run?
Its value is -0.077.

Which “PBM E-score” value does the source give for ACCCAGTA here?
Its value is -0.202.

With AACCGTGG as the sequence, how does the “PBM E-score” value read?
The value was -0.0728.

For CCGCGCGC, which “PBM E-score” value is on record?
Its value is -0.0622.

With AGCACGAG as the sequence, how does the “PBM E-score” value read?
Its value is 0.103.

Which “PBM E-score” value does the source give for GGTATCAA here?
Its value is 0.0678.

For ATGTCGCG, which “PBM E-score” value is on record?
The value was -0.199.

How did the “PBM E-score” value turn out when AGGGATCC was run?
The value was -0.282.

With CGAGAACG as the sequence, how does the “PBM E-score” value read?
The value was -0.0923.

For GCTGACCA, which “PBM E-score” value is on record?
The value was 0.0107.

ACTTGTTC was tested. Which “PBM E-score” value did it give?
The value was 0.0163.

With GCGAGACC as the sequence, how does the “PBM E-score” value read?
Its value is -0.033.

AATGAATT was tested. Which “PBM E-score” value did it give?
The value was 0.0966.

GAAGAACC was tested. Which “PBM E-score” value did it give?
The value was -0.115.

With CCTCCCGC as the sequence, how does the “PBM E-score” value read?
Its value is -0.193.

For ACAGGACC, which “PBM E-score” value is on record?
The value was -0.0854.

For GTTGGGGA, which “PBM E-score” value is on record?
The value was -0.0796.

How did the “PBM E-score” value turn out when AGTGGGTA was run?
Its value is 0.0808.

AGACCGAT was tested. Which “PBM E-score” value did it give?
The value was -0.214.

How did the “PBM E-score” value turn out when AGCATCCC was run?
Its value is -0.319.

With CACATGGG as the sequence, how does the “PBM E-score” value read?
Its value is -0.121.

How did the “PBM E-score” value turn out when TATGGGAA was run?
The value was -0.0972.

With AAAAACGA as the sequence, how does the “PBM E-score” value read?
The value was 0.0447.

With ACTACAAC as the sequence, how does the “PBM E-score” value read?
The value was 0.196.

For CACGCAGA, which “PBM E-score” value is on record?
Its value is 0.0753.

How did the “PBM E-score” value turn out when TCTCCGCA was run?
Its value is -0.0308.

Which “PBM E-score” value does the source give for CAGGTACC here?
The value was -0.0821.

For GAACGGGC, which “PBM E-score” value is on record?
The value was -0.217.

For CCTCCTCG, which “PBM E-score” value is on record?
Its value is -0.211.

How did the “PBM E-score” value turn out when GAAGCGTC was run?
The value was -0.193.

With AGTCTGCG as the sequence, how does the “PBM E-score” value read?
Its value is 0.108.

How did the “PBM E-score” value turn out when CCCGACAC was run?
Its value is -0.23.

ATCCCATA was tested. Which “PBM E-score” value did it give?
The value was -0.191.

With CAAGTTGG as the sequence, how does the “PBM E-score” value read?
The value was -0.111.

How did the “PBM E-score” value turn out when CATGGTCC was run?
The value was -0.0176.

Which “PBM E-score” value does the source give for ATACTGCG here?
The value was -0.106.

Which “PBM E-score” value does the source give for AGTCACAA here?
The value was 0.46.

With GCAAGCCC as the sequence, how does the “PBM E-score” value read?
Its value is -0.323.

GTATGAGA was tested. Which “PBM E-score” value did it give?
Its value is 0.149.

How did the “PBM E-score” value turn out when CATGCGGC was run?
Its value is -0.0449.

How did the “PBM E-score” value turn out when ATAGCAAA was run?
Its value is -0.0715.

Which “PBM E-score” value does the source give for ATGAGGAA here?
The value was -0.0169.

How did the “PBM E-score” value turn out when AAGCGCGG was run?
The value was -0.177.

For CCAAGCGA, which “PBM E-score” value is on record?
The value was -0.0702.

Which “PBM E-score” value does the source give for CACTCTCC here?
Its value is -0.0733.

GATGCATA was tested. Which “PBM E-score” value did it give?
The value was -0.219.

How did the “PBM E-score” value turn out when ACTGGTGA was run?
Its value is 0.108.

CCCCCCCA was tested. Which “PBM E-score” value did it give?
The value was -0.244.

Which “PBM E-score” value does the source give for CCTTAATA here?
The value was -0.108.

For GGTACAGA, which “PBM E-score” value is on record?
The value was -0.0394.

With CAAGATAG as the sequence, how does the “PBM E-score” value read?
The value was -0.0246.

With GCGATTAC as the sequence, how does the “PBM E-score” value read?
Its value is 0.187.

CATCCTGC was tested. Which “PBM E-score” value did it give?
The value was 0.0695.

For GACCGCGA, which “PBM E-score” value is on record?
Its value is -0.0427.

CCACTCAC was tested. Which “PBM E-score” value did it give?
The value was -0.0373.

Which “PBM E-score” value does the source give for GCGTGAGA here?
Its value is 0.0527.

ATTTTTGC was tested. Which “PBM E-score” value did it give?
Its value is 0.0714.

How did the “PBM E-score” value turn out when ATTGTCGG was run?
Its value is 0.0139.

How did the “PBM E-score” value turn out when AACCTTTC was run?
The value was -0.204.

Which “PBM E-score” value does the source give for CGGAAAAG here?
Its value is 0.117.

For AAGAGAGT, which “PBM E-score” value is on record?
The value was 0.221.

Which “PBM E-score” value does the source give for CTAGAGCC here?
Its value is -0.116.

CCACAACC was tested. Which “PBM E-score” value did it give?
Its value is -0.0752.

For AACCAGCA, which “PBM E-score” value is on record?
The value was -0.0168.

Which “PBM E-score” value does the source give for CAATATTC here?
Its value is -0.0819.

How did the “PBM E-score” value turn out when CTCATTTA was run?
The value was 0.243.

How did the “PBM E-score” value turn out when CCAGGAAC was run?
Its value is -0.275.

With ATGCGGGG as the sequence, how does the “PBM E-score” value read?
The value was -0.196.

With CAGGATAA as the sequence, how does the “PBM E-score” value read?
Its value is -0.208.

For AGGTCCAA, which “PBM E-score” value is on record?
Its value is -0.1.

How did the “PBM E-score” value turn out when AACGGATT was run?
The value was 0.0965.

Which “PBM E-score” value does the source give for GCAATGGC here?
Its value is -0.142.

TCAAGGCA was tested. Which “PBM E-score” value did it give?
Its value is 0.0122.

Which “PBM E-score” value does the source give for CCTCGGAG here?
The value was -0.164.

For AGCCAGAA, which “PBM E-score” value is on record?
Its value is 0.0726.

For AACTGAAG, which “PBM E-score” value is on record?
Its value is 0.0115.

How did the “PBM E-score” value turn out when AGACAGTC was run?
The value was 0.24.
